Binding signal (RPM ratio (pull-down/input)) data for 63 sequences are collected here from PMC12820563.

The list shows a part of the results. The list includes weakly bound sequences.

This test concerns the target T1, MBP-FoxP3dN (UniProt Q99JB6).
T1 sequence: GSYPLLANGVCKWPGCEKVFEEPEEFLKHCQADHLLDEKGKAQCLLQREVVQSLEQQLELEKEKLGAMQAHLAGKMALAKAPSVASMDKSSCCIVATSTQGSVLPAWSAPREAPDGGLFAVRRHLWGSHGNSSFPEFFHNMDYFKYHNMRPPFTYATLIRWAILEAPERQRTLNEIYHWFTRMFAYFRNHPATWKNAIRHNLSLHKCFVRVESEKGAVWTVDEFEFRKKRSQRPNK
In words: PD-seq (MBP pull-down with sequencing). Conditions: 20 mM Tris-HCl pH 7.5, 100 mM NaCl, 1.5 mM MgCl2, 0.4 uM protein, 0.1 uM dsDNA library, 30 min, room temperature, amylose pull-down; high values mean tight binding; double strand, one strand shown.
Turning to “GATGATTGTTCTCCCAGCTGATGAATTTAACATCTCGAGTAAACAAATTTTCCTAATCTTTCTGTTCAAGCGCCATCTAC”, the binding signal (RPM ratio (pull-down/input)) was determined as 1.3. Next, “GATGATTGTTCTCCCAGCTGATGAATTGCAACACTCGAGTAAACAAATTTTCCTAATCTTTCTGTTCAAGCGCCATCTAC”: 3.16; “GATGATTGTTCTCCCAGCTGATGAATTAATGTACTCGAGTAAACAAATTTTCCTAATCTTTCTGTTCAAGCGCCATCTAC”: 2.12. On to “GATGATTGTTCTCCCAGCTGATGAATTTGCGAACTCGAGTAAACAAATTTTCCTAATCTTTCTGTTCAAGCGCCATCTAC”, for which the binding signal (RPM ratio (pull-down/input)) is 0.377. Then “GATGATTGTTCTCCCAGCTGATGAATTCTTGACTTCGAGTAAACAAATTTTCCTAATCTTTCTGTTCAAGCGCCATCTAC”, with 0.38; and “GATGATTGTTCTCCCAGCTGATGAATTCTCTGAATCGAGTAAACAAATTTTCCTAATCTTTCTGTTCAAGCGCCATCTAC”, with 0.169; and “GATGATTGTTCTCCCAGCTGATGAATTCAAGGCTTCGAGTAAACAAATTTTCCTAATCTTTCTGTTCAAGCGCCATCTAC”, with 0.339. Next, “GATGATTGTTCTCCCAGCTGATGAATTAGGAGTATCGAGTAAACAAATTTTCCTAATCTTTCTGTTCAAGCGCCATCTAC”: 0.632; “GATGATTGTTCTCCCAGCTGATGAATTTCGGACTTCGAGTAAACAAATTTTCCTAATCTTTCTGTTCAAGCGCCATCTAC”: 0.39; “GATGATTGTTCTCCCAGCTGATGAATTAAGTAGCTCGAGTAAACAAATTTTCCTAATCTTTCTGTTCAAGCGCCATCTAC”: 0.874.

Take “GATGATTGTTCTCCCAGCTGATGAATTCCAATATTCGAGTAAACAAATTTTCCTAATCTTTCTGTTCAAGCGCCATCTAC”: the binding signal (RPM ratio (pull-down/input)) stood at 0.625. For “GATGATTGTTCTCCCAGCTGATGAATTTTCAGAGTCGAGTAAACAAATTTTCCTAATCTTTCTGTTCAAGCGCCATCTAC”, the binding signal (RPM ratio (pull-down/input)) was determined as 0.21. Then “GATGATTGTTCTCCCAGCTGATGAATTGCTAGAATCGAGTAAACAAATTTTCCTAATCTTTCTGTTCAAGCGCCATCTAC”, with 0.451; and “GATGATTGTTCTCCCAGCTGATGAATTGCTCGGATCGAGTAAACAAATTTTCCTAATCTTTCTGTTCAAGCGCCATCTAC”, with 0.318; and “GATGATTGTTCTCCCAGCTGATGAATTGCTAACTTCGAGTAAACAAATTTTCCTAATCTTTCTGTTCAAGCGCCATCTAC”, with 0.723. With “GATGATTGTTCTCCCAGCTGATGAATTCACTTCATCGAGTAAACAAATTTTCCTAATCTTTCTGTTCAAGCGCCATCTAC”, the binding signal (RPM ratio (pull-down/input)) amounted to 0.388.

In the case of “GATGATTGTTCTCCCAGCTGATGAATTTTCGTCATCGAGTAAACAAATTTTCCTAATCTTTCTGTTCAAGCGCCATCTAC”, the binding signal (RPM ratio (pull-down/input)) came to 0.544. Then “GATGATTGTTCTCCCAGCTGATGAATTTTTCTGCTCGAGTAAACAAATTTTCCTAATCTTTCTGTTCAAGCGCCATCTAC”, with 0.215; and “GATGATTGTTCTCCCAGCTGATGAATTACTCGTTTCGAGTAAACAAATTTTCCTAATCTTTCTGTTCAAGCGCCATCTAC”, with 0.339. Next, “GATGATTGTTCTCCCAGCTGATGAATTTCCAATGTCGAGTAAACAAATTTTCCTAATCTTTCTGTTCAAGCGCCATCTAC”: 0.267; “GATGATTGTTCTCCCAGCTGATGAATTAAGAACTTCGAGTAAACAAATTTTCCTAATCTTTCTGTTCAAGCGCCATCTAC”: 0.226. On to “GATGATTGTTCTCCCAGCTGATGAATTACCAGCATCGAGTAAACAAATTTTCCTAATCTTTCTGTTCAAGCGCCATCTAC”, for which the binding signal (RPM ratio (pull-down/input)) amounted to 0.789. Then “GATGATTGTTCTCCCAGCTGATGAATTTGCCCTGTCGAGTAAACAAATTTTCCTAATCTTTCTGTTCAAGCGCCATCTAC”, with 0.487; and “GATGATTGTTCTCCCAGCTGATGAATTACGTACGTCGAGTAAACAAATTTTCCTAATCTTTCTGTTCAAGCGCCATCTAC”, with 0.524.

Take “GATGATTGTTCTCCCAGCTGATGAATTGCGACACTCGAGTAAACAAATTTTCCTAATCTTTCTGTTCAAGCGCCATCTAC”: the binding signal (RPM ratio (pull-down/input)) amounted to 2.72.

Take “GATGATTGTTCTCCCAGCTGATGAATTAGCGCCGTCGAGTAAACAAATTTTCCTAATCTTTCTGTTCAAGCGCCATCTAC”: the binding signal (RPM ratio (pull-down/input)) came out at 0.621. For the sequence “GATGATTGTTCTCCCAGCTGATGAATTGTTAGTCTCGAGTAAACAAATTTTCCTAATCTTTCTGTTCAAGCGCCATCTAC”, the binding signal (RPM ratio (pull-down/input)) was 3.38. Then “GATGATTGTTCTCCCAGCTGATGAATTTTGGTGATCGAGTAAACAAATTTTCCTAATCTTTCTGTTCAAGCGCCATCTAC”, with 0.708; and “GATGATTGTTCTCCCAGCTGATGAATTGGAGGTCTCGAGTAAACAAATTTTCCTAATCTTTCTGTTCAAGCGCCATCTAC”, with 0.401; and “GATGATTGTTCTCCCAGCTGATGAATTGGATGATTCGAGTAAACAAATTTTCCTAATCTTTCTGTTCAAGCGCCATCTAC”, with 0.834. Then “GATGATTGTTCTCCCAGCTGATGAATTCCATGCTTCGAGTAAACAAATTTTCCTAATCTTTCTGTTCAAGCGCCATCTAC”, with 0.587; and “GATGATTGTTCTCCCAGCTGATGAATTCGTGTCTTCGAGTAAACAAATTTTCCTAATCTTTCTGTTCAAGCGCCATCTAC”, with 1.11; and “GATGATTGTTCTCCCAGCTGATGAATTGTGTTCTTCGAGTAAACAAATTTTCCTAATCTTTCTGTTCAAGCGCCATCTAC”, with 2.39. For the sequence “GATGATTGTTCTCCCAGCTGATGAATTAATAACTTCGAGTAAACAAATTTTCCTAATCTTTCTGTTCAAGCGCCATCTAC”, the binding signal (RPM ratio (pull-down/input)) is 0.453. Regarding “GATGATTGTTCTCCCAGCTGATGAATTCCCCAGGTCGAGTAAACAAATTTTCCTAATCTTTCTGTTCAAGCGCCATCTAC”, the binding signal (RPM ratio (pull-down/input)) came to 0.146. Next, “GATGATTGTTCTCCCAGCTGATGAATTTTGAGTCTCGAGTAAACAAATTTTCCTAATCTTTCTGTTCAAGCGCCATCTAC”: 1.7; “GATGATTGTTCTCCCAGCTGATGAATTATGGACATCGAGTAAACAAATTTTCCTAATCTTTCTGTTCAAGCGCCATCTAC”: 0.579; “GATGATTGTTCTCCCAGCTGATGAATTATTTCCTTCGAGTAAACAAATTTTCCTAATCTTTCTGTTCAAGCGCCATCTAC”: 0.385. Take “GATGATTGTTCTCCCAGCTGATGAATTGCTTTATTCGAGTAAACAAATTTTCCTAATCTTTCTGTTCAAGCGCCATCTAC”: the binding signal (RPM ratio (pull-down/input)) stood at 1.09. “GATGATTGTTCTCCCAGCTGATGAATTGTTTCATTCGAGTAAACAAATTTTCCTAATCTTTCTGTTCAAGCGCCATCTAC”: the binding signal (RPM ratio (pull-down/input)) came out at 0.91.

For “GATGATTGTTCTCCCAGCTGATGAATTCAACTGTTCGAGTAAACAAATTTTCCTAATCTTTCTGTTCAAGCGCCATCTAC”, the binding signal (RPM ratio (pull-down/input)) was 0.472. Then “GATGATTGTTCTCCCAGCTGATGAATTAGATTGGTCGAGTAAACAAATTTTCCTAATCTTTCTGTTCAAGCGCCATCTAC”, with 1.93.

For the sequence “GATGATTGTTCTCCCAGCTGATGAATTCCACACCTCGAGTAAACAAATTTTCCTAATCTTTCTGTTCAAGCGCCATCTAC”, the binding signal (RPM ratio (pull-down/input)) came to 0.337. Next, “GATGATTGTTCTCCCAGCTGATGAATTAGCTGCTTCGAGTAAACAAATTTTCCTAATCTTTCTGTTCAAGCGCCATCTAC”: 0.674. Next, “GATGATTGTTCTCCCAGCTGATGAATTCTTGCCTTCGAGTAAACAAATTTTCCTAATCTTTCTGTTCAAGCGCCATCTAC”: 1.81; “GATGATTGTTCTCCCAGCTGATGAATTGTCGCCATCGAGTAAACAAATTTTCCTAATCTTTCTGTTCAAGCGCCATCTAC”: 2.3; “GATGATTGTTCTCCCAGCTGATGAATTTGTTGCATCGAGTAAACAAATTTTCCTAATCTTTCTGTTCAAGCGCCATCTAC”: 7.07.

For “GATGATTGTTCTCCCAGCTGATGAATTACAATGCTCGAGTAAACAAATTTTCCTAATCTTTCTGTTCAAGCGCCATCTAC”, the binding signal (RPM ratio (pull-down/input)) was found to be 0.958. “GATGATTGTTCTCCCAGCTGATGAATTGGTATGCTCGAGTAAACAAATTTTCCTAATCTTTCTGTTCAAGCGCCATCTAC”: the binding signal (RPM ratio (pull-down/input)) was determined as 1.79. As to “GATGATTGTTCTCCCAGCTGATGAATTTGTAGGATCGAGTAAACAAATTTTCCTAATCTTTCTGTTCAAGCGCCATCTAC”, the binding signal (RPM ratio (pull-down/input)) is 1.85. On to “GATGATTGTTCTCCCAGCTGATGAATTAAGTCCGTCGAGTAAACAAATTTTCCTAATCTTTCTGTTCAAGCGCCATCTAC”, for which the binding signal (RPM ratio (pull-down/input)) amounted to 0.307. With “GATGATTGTTCTCCCAGCTGATGAATTGATAGAGTCGAGTAAACAAATTTTCCTAATCTTTCTGTTCAAGCGCCATCTAC”, the binding signal (RPM ratio (pull-down/input)) is 0.361. In the case of “GATGATTGTTCTCCCAGCTGATGAATTGCTGAATTCGAGTAAACAAATTTTCCTAATCTTTCTGTTCAAGCGCCATCTAC”, the binding signal (RPM ratio (pull-down/input)) stood at 0.916.

For the sequence “GATGATTGTTCTCCCAGCTGATGAATTCAAGCAATCGAGTAAACAAATTTTCCTAATCTTTCTGTTCAAGCGCCATCTAC”, the binding signal (RPM ratio (pull-down/input)) is 1.65. Next, “GATGATTGTTCTCCCAGCTGATGAATTCGCGCCCTCGAGTAAACAAATTTTCCTAATCTTTCTGTTCAAGCGCCATCTAC”: 0.701; “GATGATTGTTCTCCCAGCTGATGAATTACGGCGTTCGAGTAAACAAATTTTCCTAATCTTTCTGTTCAAGCGCCATCTAC”: 1.34; “GATGATTGTTCTCCCAGCTGATGAATTCGAGTACTCGAGTAAACAAATTTTCCTAATCTTTCTGTTCAAGCGCCATCTAC”: 0.707.

Take “GATGATTGTTCTCCCAGCTGATGAATTTATCAATTCGAGTAAACAAATTTTCCTAATCTTTCTGTTCAAGCGCCATCTAC”: the binding signal (RPM ratio (pull-down/input)) was 0.676. Then “GATGATTGTTCTCCCAGCTGATGAATTGGTTTCCTCGAGTAAACAAATTTTCCTAATCTTTCTGTTCAAGCGCCATCTAC”, with 1.54; and “GATGATTGTTCTCCCAGCTGATGAATTCTGTAAATCGAGTAAACAAATTTTCCTAATCTTTCTGTTCAAGCGCCATCTAC”, with 0.538. Next, “GATGATTGTTCTCCCAGCTGATGAATTCTTCAAGTCGAGTAAACAAATTTTCCTAATCTTTCTGTTCAAGCGCCATCTAC”: 0.196; “GATGATTGTTCTCCCAGCTGATGAATTTCCATTGTCGAGTAAACAAATTTTCCTAATCTTTCTGTTCAAGCGCCATCTAC”: 0.436; “GATGATTGTTCTCCCAGCTGATGAATTTAGACAATCGAGTAAACAAATTTTCCTAATCTTTCTGTTCAAGCGCCATCTAC”: 0.862.
